Laboratory results as given in PMC4336329 (PLoS ONE, 2015).
About 14,000 (4.5%) of roughly 310,000 compounds showed an effect of 50% or more. Effects have a minus sign here. This is one part of the list.

Target: human ether-à-go-go-related gene (hERG) potassium channel (human, UniProt Q12809)
Test: primary screen, population patch clamp on CHO cells stably expressing hERG
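Note: peak tail current of the secondary pulse compared with the same well before compound.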

Chain of human ether-à-go-go-related gene (hERG) potassium channel (Q12809 whole entry, looked up): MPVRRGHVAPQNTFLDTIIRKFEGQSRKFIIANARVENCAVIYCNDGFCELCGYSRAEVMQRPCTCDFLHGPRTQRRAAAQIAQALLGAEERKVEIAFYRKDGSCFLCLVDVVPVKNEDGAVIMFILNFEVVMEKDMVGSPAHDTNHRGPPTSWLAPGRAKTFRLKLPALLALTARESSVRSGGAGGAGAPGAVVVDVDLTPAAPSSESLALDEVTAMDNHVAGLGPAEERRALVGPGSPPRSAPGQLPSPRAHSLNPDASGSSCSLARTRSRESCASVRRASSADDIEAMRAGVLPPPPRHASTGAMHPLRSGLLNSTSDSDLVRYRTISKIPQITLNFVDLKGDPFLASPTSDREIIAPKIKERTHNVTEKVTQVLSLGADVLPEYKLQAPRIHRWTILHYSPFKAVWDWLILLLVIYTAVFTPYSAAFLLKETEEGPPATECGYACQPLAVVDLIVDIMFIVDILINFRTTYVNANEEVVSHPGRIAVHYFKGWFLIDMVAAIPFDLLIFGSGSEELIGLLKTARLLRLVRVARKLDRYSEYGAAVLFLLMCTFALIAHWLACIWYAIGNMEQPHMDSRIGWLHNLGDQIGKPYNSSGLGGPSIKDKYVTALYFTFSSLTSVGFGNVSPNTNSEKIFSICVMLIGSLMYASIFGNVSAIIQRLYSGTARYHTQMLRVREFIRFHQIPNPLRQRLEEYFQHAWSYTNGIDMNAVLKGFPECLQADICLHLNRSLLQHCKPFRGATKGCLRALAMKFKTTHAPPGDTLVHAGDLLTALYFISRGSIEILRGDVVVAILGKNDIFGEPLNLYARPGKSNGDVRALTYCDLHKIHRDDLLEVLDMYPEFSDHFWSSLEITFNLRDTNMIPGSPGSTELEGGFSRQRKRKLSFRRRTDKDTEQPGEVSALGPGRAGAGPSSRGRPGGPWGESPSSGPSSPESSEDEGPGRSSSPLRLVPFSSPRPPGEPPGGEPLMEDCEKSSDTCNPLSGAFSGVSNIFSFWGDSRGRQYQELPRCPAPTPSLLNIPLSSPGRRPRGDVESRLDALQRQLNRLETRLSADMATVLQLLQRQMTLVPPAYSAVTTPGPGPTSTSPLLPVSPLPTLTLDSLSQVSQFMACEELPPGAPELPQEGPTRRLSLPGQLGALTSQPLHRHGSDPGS

Point of comparison: CCOCCCNC(=O)C1CCN(S(=O)(=O)c2cc(Br)cc3c2N(C(=O)CC)CC3)CC1, “hERG current change (%, negative = inhibition) at 10uM” value -1.16%. Against it:
- CCCCCOc1ccc(C2C(C(C)=O)=C(C)Nc3ncnn32)cc1OC (stereo not drawn) — lower, -2.28%
- CC(=O)c1cc2c(cc1NC(=O)CCCC(=O)O)OCO2 — higher, 10.6%
- COc1cc(-c2nnc(SCC(=O)NC3CCCC3)n2C)cc(OC)c1O — higher, 35.2%
- CC(C)NS(=O)(=O)c1ccc(CCC(=O)Nc2ccc3c(c2)OCCO3)cc1 — higher, -1%
- O=C(O)CCNS(=O)(=O)c1ccc2c(c1)Cc1ccccc1-2 — higher, 4.88%
- CC(=O)c1cccc(NC(=O)N2CCCC2C(=O)NCc2ccc(C)cc2)c1 (stereo not drawn) — lower, -36.7%
- COc1ccc(CSc2nncn2N)cc1Br — higher, 4.98%
- O=C(N/N=C/c1ccccc1OCC(=O)N1CCCC1)C(=O)Nc1ccccc1F — lower, -11.9%
- CN(C)S(=O)(=O)c1ccc(C(=O)Nc2nnc(SCC(=O)NCC3CCCO3)s2)cc1 (stereo not drawn) — higher, 12.2%
- CCC(CC)NC(=O)Nc1cccc(C)c1C — lower, -17%
- CCc1nc2sc3c(c2c(=O)n1CCO)CCC3 — higher, 14.1%
- CCN1CCN(C(=O)c2cc(COc3c(C)cccc3C)on2)CC1 — lower, -32.3%
- Cc1nn(CC(=O)Nc2ccc3c(c2)nc(CN2CCCCC2)n3C)c(=O)c2ccccc12 — lower, -4.03%
- CN(C)P1(N(C)C)=NC(C(F)(F)F)=NC(C(F)(F)F)=N1 — higher, 17.5%
- CNS(=O)(=O)c1cc(-c2nnc(N3CCOCC3)c3ccccc23)ccc1C — lower, -17.1%
- O=C(Nc1cccnc1)Nc1ccc(Br)cc1Cl — higher, -0.533%
- O=C(Cc1ccc(F)cc1)NC1CCSC1=O (stereo not drawn) — higher, 17.1%
- CCn1c(SCC(=O)Nc2ccccc2OC)nc2ccccc2c1=O — lower, -11.9%
- COC(=O)c1sc2nc3c(c(-c4cccs4)c2c1N)CCCC3 — higher, 9.57%
- Cc1cc(C)c(C)c(OCC(=O)N2CCN(c3ccccn3)CC2)c1 — lower, -33.6%
- CN(C)c1ncc(S(=O)(=O)c2ccccc2)c(-c2ccccc2Cl)n1 — lower, -20.2%
- CCn1nc(C)cc1-c1n[nH]c(=S)n1N — higher, 23.1%
- O=C(COc1ccc2c(c1)OCO2)Nc1nccs1 — higher, 18.7%
- Cc1c(NC(=O)C(C)OC(=O)c2cccnc2)c(=O)n(-c2ccccc2)n1C (stereo not drawn) — higher, 14.4%
- N/C(=N\OC(=O)/C=C/c1ccccc1Cl)c1ccncc1 — lower, -28.5%
- CCn1c(C(=O)O)c(CC(=O)NC2CCCCCC2)c2ccccc21 — higher, 16.2%
- CSCc1c(C(=O)N2CCCc3ccccc32)oc2ccccc12 — higher, 1.15%
- O=C1CCC(C(=O)N2CCCCCC2)CN1Cc1cccc(C(F)(F)F)c1 (stereo not drawn) — lower, -15%
- COc1ccc(C(=O)CSc2nnc(Cn3nnc4ccccc43)n2C)cc1 — lower, -13.7%
- Cc1ccc(-n2c(CCC(=O)O)ccc2-c2cccs2)cc1C — higher, 3.25%
- C/C=C\C=C/C(=O)Nc1cccc(C2=NOC3(C2)C[C@@H](C(N)=O)N(C(=O)/C=C/C=C\C)C3)c1 (stereo partly drawn) — higher, 12.7%
- COc1ccc(NC(=O)Cn2c(=O)n(Cc3ccco3)c(=O)c3ccccc32)cc1 — higher, -1.15%
- COc1cc(NC(=O)Cc2ccc(F)cc2)cc(OC)c1OC — higher, 16.2%
- CCn1cc(CN2CCC(n3nccc3NC(=O)CCCc3ccccc3)CC2)cn1 — lower, -27.3%
- O=c1nc2s/c(=C\c3ccco3)c(=O)n2nc1Cc1ccccc1 — higher, 21.3%
- CCn1c(C)nc2cc(-c3nc4n(n3)Cc3ccccc3-4)ccc21 — higher, -0.0124%
- Cl.O=C(CCN1CCN(CCO)CC1)N1c2ccccc2Sc2ccc(C(F)(F)F)cc21 — lower, -12%
- CSCc1nnc2n1-c1ccc(Cl)cc1C(c1ccccc1)=NC2 — lower, -17%
- CC1CN(C(=O)c2cc3ccccc3cc2O)CC(C)O1 (stereo not drawn) — higher, 0.614%
- CCS(=O)(=O)N1CCC(C(=O)Nc2cc([N+](=O)[O-])ccc2C)CC1 — higher, 2.39%
- CC(C)c1ccc(NC(=O)[C@H]2CSCN2C(=O)[C@@H]2CCC(=O)N2)cc1 — lower, -1.7%
- CCN(CC)S(=O)(=O)c1ccc(-n2cnc3cc(C)c(C)cc32)nc1 — higher, 14.4%
- O=C(NC1CCCCC1)C(c1cccs1)N(C(=O)C(F)(F)F)c1ccccc1 (stereo not drawn) — higher, 1.61%
- O=C(Nc1ccc(Cl)c(S(=O)(=O)N2CCOCC2)c1)c1ccccn1 — higher, -0.348%
- COc1ccc(C(=O)/C=C/c2ccc(OC)c(O)c2)c(F)c1 — lower, -13.5%
- O=C(Nc1ccc(F)cc1)C1CCN(c2nnnn2-c2ccccc2)CC1 — lower, -46.2%
- COc1ccc(N2C(=O)CCC(C(=O)NCc3ccccn3)C2c2ccc(OC)c(OC)c2)cc1 (stereo not drawn) — lower, -14.5%
- CCN(CC)CCNC(=O)C(C(=O)c1ccccc1)n1ccccc1=O (stereo not drawn) — lower, -6.06%
- COc1cc(C2C3C(=O)N(Cc4ccccc4)C(=O)C3ON2c2ccccc2)cc(OC)c1O (stereo not drawn) — lower, -17%
- CCc1ccc2oc(-c3cccc(N)c3)nc2c1 — higher, 6.25%
- Cc1ccccc1N1CC(c2nc3ccccc3[nH]2)CC1=O (stereo not drawn) — higher, 12.5%
- Cc1ccccc1NS(=O)(=O)c1cc(C(=O)N2CCc3ccccc3C2)ccc1C — higher, 6.67%
- COc1ccccc1C(O)P(=O)(OC(C)C)c1ccc(N(C)C)cc1 (stereo not drawn) — lower, -10.6%
- Cc1csc(NC(C)c2nc3cc(C(F)(F)F)ccc3n2CCOCCO)n1 (stereo not drawn) — lower, -38.8%
- COc1cc(NC(=O)[C@H]2CCCN2S(=O)(=O)c2cccc3cccnc23)cc(OC)c1OC — higher, 0.0494%
- CNC(=O)CSc1nnc(NC(=O)C2CC(=O)N(c3ccccc3OC)C2)s1 (stereo not drawn) — higher, 16.4%
- C#CCOc1ccc(/C=C2/C(=O)ON=C2C)cc1OCC — higher, 20.1%
- CCOc1ccc(C(=O)NCC(=O)OCC(=O)Nc2ccc(C)c(S(=O)(=O)N(C)C)c2)cc1 — lower, -30%
- CC(=O)C1=C(O)C(=O)N(c2ccc(Br)cn2)C1c1cccc([N+](=O)[O-])c1 (stereo not drawn) — higher, 16.3%
- CC(C)(C)c1ccc(CN2N=C(/C=C/c3ccccc3)CCC2=O)cc1 — higher, 19.2%
- CC(C(=O)c1ccc(Br)cc1)[n+]1cccc(NC(=O)c2ccccc2)c1 (stereo not drawn) — lower, -38.2%
- C=CCN1C(=S)N[C@@H]2CS(=O)(=O)C[C@@H]21 — lower, -6.08%
- CC(=O)c1ccc(S(=O)(=O)N2CCN(C(=O)C3CCCC3)CC2)cc1 — higher, 2.11%
- COc1ccc(NC(=O)NNC(=O)C(O)(c2ccccc2)c2ccccc2)cc1 — lower, -9.41%
- Cc1ccc(-c2nc3ccccc3s2)cc1NC(=O)c1cc(-n2cnnc2)ccc1Cl — lower, -4.7%
- CC(C)=C1C2CCC1C1C(=O)N(NC(=O)COc3ccc(Cl)c(C)c3)C(=O)C21 (stereo not drawn) — lower, -18.7%
- O=C(COc1ccccc1Cl)N1CCN(c2ccc(F)cc2)CC1 — lower, -6.04%
- CCOC(CNC(=O)c1ccc2c(c1)ncn2-c1ccc(F)c(F)c1)OCC — lower, -19.8%
- CCn1c(-c2ccccc2SC)n[nH]c1=S — higher, 11.3%
- CN(C(=O)C1CCCO1)c1nnc(-c2ccccn2)s1 (stereo not drawn) — higher, 3.15%
- CC(C)OC(=O)CSc1ncnc2c1cnn2-c1ccccc1 — higher, 12.6%
- COc1ccc2c(c1)c(CC(=O)Nc1cccc(S(N)(=O)=O)c1)c(C)n2C(=O)c1ccc(Cl)cc1 — higher, 1.02%
- CNC(=O)COc1ccccc1C(=O)Nc1ccc2c(c1)oc1ccccc12 — higher, 13.7%
- Cc1ccc(-n2c(-c3ccccc3)c[n+]3c2CCc2ccccc2-3)c(C)c1.[Br-] — lower, -93%
- O=C(N/N=C/c1ccccn1)c1cccc(NC(=O)c2ccccc2Cl)c1 — lower, -4.9%
- COc1ccc(NC(=O)c2ccc(-c3ccc([N+](=O)[O-])cc3)o2)cc1OC — lower, -64.9%
- CSc1ncccc1C(=O)OCc1ccc([N+](=O)[O-])cc1 — higher, 6.39%
- CCNC(=O)NC(=O)C(C)N1C(=O)NC(c2ccccc2)(c2ccccc2)C1=O (stereo not drawn) — lower, -43.6%
- COc1ccccc1CC(=O)Nc1cccc(C(=O)Nc2nccs2)c1 — higher, -0.755%
- Cc1ccc(NC(=O)/C(=C/C=C/c2ccccc2)NC(=O)c2ccccc2)cc1 — lower, -2.74%
- Cc1ccc(F)c(NC(=O)/C(C#N)=C(\O)c2ccc(C(C)(C)C)cc2)c1 — higher, 15.9%
- Cc1ccc(C(=O)N/N=C\c2ccccn2)cn1 — higher, 6.09%
- O=C(c1ccncc1)N1CCN(S(=O)(=O)c2ccc3ccccc3c2)CC1 — lower, -6.39%
- O=C(Nc1ccc(Cl)c(S(=O)(=O)N2CCOCC2)c1)c1ccccc1-c1ccc(C(F)(F)F)cc1 — lower, -1.69%
- O=[N+]([O-])c1cc(CN2CCCCCC2)ccc1O — higher, 9.47%
- CCn1c(=O)c(C(=O)CN2CCN(S(=O)(=O)c3ccc(C)cc3C)CC2)c(N)n(Cc2ccccc2)c1=O — lower, -21.2%
